Experimental data published in the RNAGym collection of RNA variant scans (doi:10.1093/nar/gkz1192).
The source gives no read counts; variants with many changes may rest on few reads.

B1: CPEB3 Ribozyme (parent)
chain: UAACAGGGGGCCACAGCAGAAGCGUUCACGUCGCAGCCCCUGUCAGAUUCUGGUGAAUCUGCGAAUUCUGCUGUAUAUCUC

Variants of: B1
Test: self-cleavage, relative activity (ratio to wild type); higher = more cleavage; in vitro, sequencing
Summary of the method: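 Libraries of CPEB3 self-cleaving ribozyme mutants came from rounds of error-prone PCR and carried barcodes, which DNA sequencing matched to variants. In vitro transcription used T7 RNA polymerase at 37°C for 5 hours, with a further 15 min in DNase I before EDTA stopped the reaction; the ribozymes cleaved during both steps. The RNA was reverse transcribed with template switching and sequenced on Illumina. Relative activity is the cleaved/total read fraction of a variant divided by that of the unmutated ribozyme, averaged over three batches with at least 5 reads.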

| Variant | self-cleavage |
| --- | --- |
| A21G U25C C40U U54A U60A A77U | 0.14 |
| A21G C29U A47G U51C G61U A64G | 0.06 |
| A21G C29U U41A C71U | 0.15 |
| A21U A28G U51A | 0.33 |
| A21G U41A U60C | 0.22 |
| A21G G33U U49C U60C | 0.1 |
| A21G G24A U43C U54A C79U | 0.05 |
| A21G U25C C27U C38G U80C | 0.05 |
| A21G G24A A28G A45G | 0.14 |
| A21G U31A G36A U48C U60G | 0.05 |
| A21G U51A U69A U72A U80C | 0.15 |
| A21G G53C U72C | 1.08 |
| A21G U31C U60A C81U | 0.03 |
| A21G C34U A35G U41C | 0.2 |
| A21G U49C G61A | 0.07 |
| A21G U25C A57G U74C | 0.45 |
| A21G C68A U74C | 0.21 |
| A21G C27U A28G U41C G52A U54C U69A | 0.1 |
| A21G C40G A45G | 0.11 |
| A21G U26A U49A U54C A64U | 0.11 |
| A21G U49C U54C C62A C71A A75U | 0.06 |
| A21G G52A U60A | 0.14 |
| A21G C29A U43C U49C | 0.24 |
| A21G G22U C32U U43C U58C | 0.05 |

| Variant | self-cleavage |
| --- | --- |
| A21G G24U U25C | 0.12 |
| A21G G36A U41C U49A | 0.06 |
| A21G U43C U51C U60C | 0.15 |
| A21G U31C U72C | 0.16 |
| A21G G24A U51A C59A A64G U72C | 0.09 |
| A21G U26C A57G U76C | 0.28 |
| A21G U25A C40U | 0.11 |
| A21G U26C G42A U69C | 0.15 |
| A21G U26A A28U A45G | 0.17 |
| A21G U31C C38A U43C A45U | 0.07 |
| A21G C40G G46A | 0.16 |
| A21G U25C U41A U80C | 0.1 |
| A21G U25A A35C | 0.26 |
| A21G C40U A77G | 0.19 |
| A21G C39U G42A U43C | 0.08 |
| A21G U25A U26C U41C U54C U69C | 0.09 |
| A21G U54C A64C | 0.46 |
| A21G U26A U54C U76C | 0.63 |
| A21G U69A U72C | 0.12 |
| A21G U31C U51C | 0.17 |
| A21G C32A U41C U60A | 0.15 |
| A21G C27U A35U U51C U54A U67C | 0.06 |
| A21G U54A U67A U69C | 0.25 |
| A21U A28U U31C U72A | 0.09 |

| Variant | self-cleavage |
| --- | --- |
| A21G U58C U78C | 0.21 |
| A21G C29U U78C | 0.15 |
| A21G U31C C40U U49A A57G U66A | 0.15 |
| A21G C29U C62U | 0.05 |
| A21G C40A U66C C79A | 0.07 |
| A21G U26C U54A | 0.29 |
| A21G U54C G55U U76A | 0.45 |
| A21G U54C C62A | 0.08 |
| A21G U41A U72C | 0.47 |
| A21G U66C U67C U72A U74G | 0.23 |
| A21G U31C U58C A64U | 0.07 |
| A21G G33U U43C U69A C71G U80G C81A | 0.04 |
| A21G G73A U74C | 1.07 |
| A21G C37U C44U C71U A77G | 0.06 |
| A21G U43C A45G U72C | 0.39 |
| A21G U54C A65G U80C | 0.13 |
| A21G U49C U80A | 0.24 |
| A21G G30U U41C | 0.22 |
| A21U A35C U54C U60A U69C U72A | 0.13 |
| A21G U43A A57G U80C | 0.76 |
| A21G U43C C44U | 0.17 |
| A21G C32A U51C A57G | 0.19 |
| A21G U67C C68G | 0.15 |
| A21G C32A U43C U54C | 0.15 |

| Variant | self-cleavage |
| --- | --- |
| A21G U25C A28G U43C A64G | 0.51 |
| A21G C34A G70A U80C | 0.14 |
| A21G C38A A47G | 0.19 |
| A21U A28G U51C A65G | 0.08 |
| A21G U26C U43C U80C | 0.15 |
| A21G U31C U74C | 0.32 |
| A21G G24U A65C U67C | 0.16 |
| A21G U31A A56U C71A | 0.09 |
| A21G U51C A57U | 0.35 |
| A21G U26A A45C U60A | 0.21 |
| A21G U25A A28U U41C | 0.07 |
| A21G U26C C62A | 0.16 |
| A21G U31G U49A G52A A56G | 0.11 |
| A21G U26C C40U U43A U49A U67C U74C | 0.05 |
| A21G C44A A45G U48C | 0.23 |
| A21G G52A U74C | 1.07 |
| A21G U25C U51A U80A | 0.15 |
| A21G G30A A56U U78C | 0.19 |
| A21G C34U U66C | 0.16 |
| A21G C37G C40U U78C U80C | 0.08 |
| A21G U25C U51A U58C | 0.24 |
| A21G U60A A64G U67C G73A | 0.12 |
| A21G U25A U43C A47G A56G | 0.07 |
| A21G U25C A45G U48C U80C | 0.31 |

| Variant | self-cleavage |
| --- | --- |
| A21G G53U A64U A65G | 0.12 |
| A21G C50U U51A | 0.65 |
| A21G U25C U43G C50U A64U | 0.07 |
| A21G G33U U54C U66C U78C | 0.07 |
| A21G C37U U41C C59U | 0.34 |
| A21G U51C U72C | 0.59 |
| A21G U26A U67A | 0.25 |
| A21G U25C A28G U80C | 0.42 |
| A21G C29U U60C U72C U78C | 0.12 |
| A21G U26G A28G U31G | 0.34 |
| A21G C38A U48C G63A U72A | 0.13 |
| A21G C40A U54C A77U | 0.06 |
| A21G G42A A47G A64G A75G | 0.04 |
| A21G G33A A56G | 0.14 |
| A21G U43C U60A A65G U67C | 0.14 |
| A21G U31A U49A | 0.13 |
| A21G U25C U60A | 0.1 |
| A21G U26A U41A U49A U72C | 0.04 |
| A21G U41A U43C A45U A64G U69A | 0.16 |
| A21G U25C A77U | 0.33 |
| A21G C32G U49C A57G A65U U80C | 0.03 |
| A21G G33A U51C U60C U76A | 0.05 |
| A21G U51C G52U A56G A64G U76C U78C | 0.14 |
| A21G U25C C37A U49C A57G U72A U80C | 0.19 |

| Variant | self-cleavage |
| --- | --- |
| A21G U26A A64G U72C C79U | 0.19 |
| A21G U49A U69C U74C | 0.17 |
| A21G U25C C34A C39A U41C A64G | 0.28 |
| A21G U31C C40U U60C U78C U80C | 0.07 |
| A21U A35G U54A U67C U72C | 0.39 |
| A21G U26C U69C | 0.25 |
| A21G C39U A57G | 0.14 |
| A21G C38U U78C | 0.5 |
| A21G C38U U78A | 0.25 |
| A21G U26C U49A A57G U66C | 0.26 |
| A21G U26A C38U U41G A47U | 0.08 |
| A21G U26A A35U U54C | 0.12 |
| A21G U72C U76C | 0.72 |
| A21G G24A U43A U51C U60C U74A U78C | 0.05 |
| A21G U43C A56U U66C U78C | 0.08 |
| A21G G24A U60A C62A U74A | 0.2 |
| A21G U51C U67C U76A | 0.11 |
| A21G U69C U72C C81U | 0.11 |
| A21G U41A C71G | 0.1 |
| A21G U25A U60C A75U | 0.12 |
| A21G C39U A77G | 0.14 |
| A21G C27A A35U A45G A56G U72A | 0.09 |
| A21G U43G G46U U48C | 0.23 |
| A21G G30A U60C U72G A77G | 0.12 |

| Variant | self-cleavage |
| --- | --- |
| A21G U43C U60C A77G U78C | 0.29 |
| A21G G33A A47G U48C U51A A57G | 0.23 |
| A21G U49C U51A | 0.41 |
| A21G U25C A28G A64G A65G | 0.19 |
| A21G U31A U41G | 0.1 |
| A21U A45G A47G A56C U67A U76C | 0.07 |
| A21G G24A A57U A65G G70A U76C | 0.04 |
| A21G U43C U49C | 0.48 |
| A21G U25C A35G U43C A56G U80A | 0 |
| A21G U26A U51A | 0.41 |
| A21G U51C U54C | 0.32 |
| A21G U58C U74A U78A | 0.39 |
| A21G U58C G61A U78C | 0.17 |
| A21G U25C A45G U78C | 0.14 |
| A21G C32G A47C U54G U69A U80G | 0.1 |
| A21G G24A U72A U78C C81U | 0.03 |
| A21G U31A U69A | 0.24 |
| A21G U49A U51A A75G | 0.1 |
| A21G C37G U78C U80C | 0.14 |
| A21G G33A U41C A45U U80A | 0.2 |
| A21G U31C A77G U78C | 0.16 |
| A21G U26C A64G | 0.36 |
| A21G G52A U80C | 0.92 |
